# Data from the supplement of paper PMC10037445.
# Whole data set: some 2,900 compounds, median “NF-kB SEAP reporter activity, fold change vs agonist alone” near 0.99, cut for the highest 2% near 2.6. The list shows a part of the results.
# Tests used:
# RAW-Dual [1] = test: NF-kB SEAP reporter activity, fold change vs agonist alone; cytotoxicity flag (confluency mask): not cytotoxic; higher = enhanced NF-kB activity
# Summary of the method: (§1)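 RAW-Dual macrophages were seeded in DMEM at 50,000 cells/well in 384-well plates, given 50 nL of library stock by pin tool, and given a PRR agonist 1 h later. Plates were held at 37 °C, 5% CO2 for 20 hours, after which supernatant was read for IRF by QuantiLuc luminescence and for NF-κB by QuantiBlue absorbance at 620 nm. Reporter activity is expressed as fold change over wells that received agonist alone. A well was called cytotoxic when IncuCyte confluency fell below 70% of agonist controls in both mask sets.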
# RAW-Dual [2] = test: NF-kB SEAP reporter activity, fold change vs agonist alone; higher = enhanced NF-kB activity
# Summary of the method: as §1
# RAW-Dual [3] = test: NF-kB SEAP reporter activity, fold change vs agonist alone; cytotoxicity flag (confluency mask): cytotoxic (confluency <70% of control); higher = enhanced NF-kB activity
# Summary of the method: as §1
# [4] = agonist: ODN 1826 (TLR9) 0.5 ug/mL
# [5] = agonist: Pam2CSK4 (TLR2/6) 0.1 ug/mL
# [6] = agonist: Pam3CSK4 (TLR2/1) 0.1 ug/mL
# [7] = library stock concentration (final ~1000-fold dilution): 10 mM, cytotoxicity flag (confluency mask): not cytotoxic, agonist: Imiquimod (TLR7) […]
# [8] = library stock concentration (final ~1000-fold dilution): 10 mM, cytotoxicity flag (confluency mask): not cytotoxic, agonist: MPLA (TLR4) […]
smiles,measurement,setting,value
Cc1cccc(CN2CCN(C(c3ccccc3)c3ccc(Cl)cc3)CC2)c1.Cl.Cl (stereo not drawn) (library stock concentration (final ~1000-fold dilution): 2 mM),NF-kB SEAP reporter activity,RAW-Dual [1]; agonist: LPS (TLR4) 0.1 ug/mL,1.51
same,NF-kB SEAP reporter activity,RAW-Dual [1]; [4],0.87
same,NF-kB SEAP reporter activity,RAW-Dual [1]; [5],0.931
same,NF-kB SEAP reporter activity,RAW-Dual [1]; [6],0.984
Cc1cccc(CN2CCN(C(c3ccccc3)c3ccc(Cl)cc3)CC2)c1.Cl.Cl (stereo not drawn),NF-kB SEAP reporter activity,"RAW-Dual [2]; library stock concentration (final ~1000-fold dilution): 2 mM, cytotoxicity flag (confluency mask): not cytotoxic, agonist: Imiquimod (TLR7) […]",0.843
same,NF-kB SEAP reporter activity,"RAW-Dual [2]; library stock concentration (final ~1000-fold dilution): 2 mM, cytotoxicity flag (confluency mask): not cytotoxic, agonist: MPLA (TLR4) […]",1.15
Cc1ccc([N+](=O)[O-])cc1S(=O)(=O)N(C)/N=C/c1cnc2ccc(Br)cn12.Cl (library stock concentration (final ~1000-fold dilution): 2 mM),NF-kB SEAP reporter activity,RAW-Dual [3]; agonist: LPS (TLR4) 0.1 ug/mL,0.339
same,NF-kB SEAP reporter activity,RAW-Dual [3]; [4],0.208
same,NF-kB SEAP reporter activity,RAW-Dual [3]; [5],0.0736
same,NF-kB SEAP reporter activity,RAW-Dual [3]; [6],0.177
Cc1ccc([N+](=O)[O-])cc1S(=O)(=O)N(C)/N=C/c1cnc2ccc(Br)cn12.Cl,NF-kB SEAP reporter activity,"RAW-Dual [2]; library stock concentration (final ~1000-fold dilution): 2 mM, cytotoxicity flag (confluency mask): cytotoxic (confluency <70% of control), agonist: Imiquimod (TLR7) […]",0.154
same,NF-kB SEAP reporter activity,"RAW-Dual [2]; library stock concentration (final ~1000-fold dilution): 2 mM, cytotoxicity flag (confluency mask): cytotoxic (confluency <70% of control), agonist: MPLA (TLR4) […]",0.267
CC(C)CC(NC(=O)C(NC(=O)c1cccc(-c2ccccc2)n1)C(C)O)B(O)O (stereo not drawn),NF-kB SEAP reporter activity,RAW-Dual [2]; [7],2.29
same,NF-kB SEAP reporter activity,RAW-Dual [2]; [8],0.997
CC(C)CC(NC(=O)C(NC(=O)c1cccc(-c2ccccc2)n1)C(C)O)B(O)O (stereo not drawn) (library stock concentration (final ~1000-fold dilution): 10 mM),NF-kB SEAP reporter activity,RAW-Dual [1]; agonist: LPS (TLR4) 0.1 ug/mL,0.629
same,NF-kB SEAP reporter activity,RAW-Dual [1]; [4],1.53
same,NF-kB SEAP reporter activity,RAW-Dual [1]; [5],0.976
same,NF-kB SEAP reporter activity,RAW-Dual [1]; [6],0.594
COC(=O)CC1CC(c2ccc(O)cc2)=NO1 (stereo not drawn),NF-kB SEAP reporter activity,RAW-Dual [2]; [7],0.963
same,NF-kB SEAP reporter activity,RAW-Dual [2]; [8],1.05
COC(=O)CC1CC(c2ccc(O)cc2)=NO1 (stereo not drawn) (library stock concentration (final ~1000-fold dilution): 10 mM),NF-kB SEAP reporter activity,RAW-Dual [1]; agonist: LPS (TLR4) 0.1 ug/mL,1.1
same,NF-kB SEAP reporter activity,RAW-Dual [1]; [4],0.966
same,NF-kB SEAP reporter activity,RAW-Dual [1]; [5],0.999
same,NF-kB SEAP reporter activity,RAW-Dual [1]; [6],0.998
COc1ccc(S(=O)(=O)N(CCO)c2ccccc2CN(C)CC=Cc2ccc(Cl)cc2)cc1 (library stock concentration (final ~1000-fold dilution): 10 mM),NF-kB SEAP reporter activity,RAW-Dual [1]; agonist: LPS (TLR4) 0.1 ug/mL,0.958
same,NF-kB SEAP reporter activity,RAW-Dual [1]; [4],0.257
same,NF-kB SEAP reporter activity,RAW-Dual [1]; [5],0.537
same,NF-kB SEAP reporter activity,RAW-Dual [1]; [6],0.372
COc1ccc(S(=O)(=O)N(CCO)c2ccccc2CN(C)CC=Cc2ccc(Cl)cc2)cc1,NF-kB SEAP reporter activity,RAW-Dual [2]; [7],0.802
same,NF-kB SEAP reporter activity,RAW-Dual [2]; [8],1.07
CC(=O)OCC1=C(C(=O)O)N2C(=O)C(NC(=O)Cc3cccs3)C2SC1 (stereo not drawn) (library stock concentration (final ~1000-fold dilution): 10 mM),NF-kB SEAP reporter activity,RAW-Dual [1]; agonist: LPS (TLR4) 0.1 ug/mL,1.21
same,NF-kB SEAP reporter activity,RAW-Dual [1]; [4],0.944
same,NF-kB SEAP reporter activity,RAW-Dual [1]; [5],1.24
same,NF-kB SEAP reporter activity,RAW-Dual [1]; [6],1.02
CC(=O)OCC1=C(C(=O)O)N2C(=O)C(NC(=O)Cc3cccs3)C2SC1 (stereo not drawn),NF-kB SEAP reporter activity,RAW-Dual [2]; [7],0.9
same,NF-kB SEAP reporter activity,RAW-Dual [2]; [8],0.995
CC(=O)C1CCC2C3CC=C4CC(O)CCC4(C)C3CCC12C (stereo not drawn),NF-kB SEAP reporter activity,RAW-Dual [2]; [7],1.07
same,NF-kB SEAP reporter activity,RAW-Dual [2]; [8],1.3
CC(=O)C1CCC2C3CC=C4CC(O)CCC4(C)C3CCC12C (stereo not drawn) (library stock concentration (final ~1000-fold dilution): 10 mM),NF-kB SEAP reporter activity,RAW-Dual [1]; agonist: LPS (TLR4) 0.1 ug/mL,1.1
same,NF-kB SEAP reporter activity,RAW-Dual [1]; [4],0.897
same,NF-kB SEAP reporter activity,RAW-Dual [1]; [5],0.904
same,NF-kB SEAP reporter activity,RAW-Dual [1]; [6],0.972
O=c1cc(-c2ccc(O)cc2)oc2cc(O)cc(O)c12 (library stock concentration (final ~1000-fold dilution): 10 mM),NF-kB SEAP reporter activity,RAW-Dual [1]; agonist: LPS (TLR4) 0.1 ug/mL,1.88
same,NF-kB SEAP reporter activity,RAW-Dual [1]; [4],1.8
same,NF-kB SEAP reporter activity,RAW-Dual [1]; [5],1.88
same,NF-kB SEAP reporter activity,RAW-Dual [1]; [6],1.77
O=c1cc(-c2ccc(O)cc2)oc2cc(O)cc(O)c12,NF-kB SEAP reporter activity,RAW-Dual [2]; [7],1.89
same,NF-kB SEAP reporter activity,RAW-Dual [2]; [8],1.52
CC(C)n1nc(-c2cc3cc(O)ccc3[nH]2)c2c(N)ncnc21,NF-kB SEAP reporter activity,RAW-Dual [2]; [7],0.933
same,NF-kB SEAP reporter activity,RAW-Dual [2]; [8],0.941
CC(C)n1nc(-c2cc3cc(O)ccc3[nH]2)c2c(N)ncnc21 (library stock concentration (final ~1000-fold dilution): 10 mM),NF-kB SEAP reporter activity,RAW-Dual [1]; agonist: LPS (TLR4) 0.1 ug/mL,3.13
same,NF-kB SEAP reporter activity,RAW-Dual [1]; [4],0.998
same,NF-kB SEAP reporter activity,RAW-Dual [1]; [5],1.01
same,NF-kB SEAP reporter activity,RAW-Dual [1]; [6],0.904
NC(=O)N1c2ccccc2C=Cc2ccccc21,NF-kB SEAP reporter activity,RAW-Dual [2]; [7],0.909
same,NF-kB SEAP reporter activity,RAW-Dual [2]; [8],0.997
NC(=O)N1c2ccccc2C=Cc2ccccc21 (library stock concentration (final ~1000-fold dilution): 10 mM),NF-kB SEAP reporter activity,RAW-Dual [1]; agonist: LPS (TLR4) 0.1 ug/mL,1.15
same,NF-kB SEAP reporter activity,RAW-Dual [1]; [4],1.06
same,NF-kB SEAP reporter activity,RAW-Dual [1]; [5],1.08
same,NF-kB SEAP reporter activity,RAW-Dual [1]; [6],1.13
C=CC(=O)N1CCN(C(=O)CNc2cc(I)c(Cl)cc2O)CC1 (library stock concentration (final ~1000-fold dilution): 10 mM),NF-kB SEAP reporter activity,RAW-Dual [1]; agonist: LPS (TLR4) 0.1 ug/mL,0.355
same,NF-kB SEAP reporter activity,RAW-Dual [1]; [4],0.326
same,NF-kB SEAP reporter activity,RAW-Dual [1]; [5],0.35
same,NF-kB SEAP reporter activity,RAW-Dual [1]; [6],0.484
C=CC(=O)N1CCN(C(=O)CNc2cc(I)c(Cl)cc2O)CC1,NF-kB SEAP reporter activity,RAW-Dual [2]; [7],0.573
same,NF-kB SEAP reporter activity,RAW-Dual [2]; [8],0.616
Cc1ccccc1CN1C(=O)C2=C(CCN(Cc3ccccc3)C2)N2CCN=C12,NF-kB SEAP reporter activity,RAW-Dual [2]; [7],0.845
same,NF-kB SEAP reporter activity,RAW-Dual [2]; [8],1.17
Cc1ccccc1CN1C(=O)C2=C(CCN(Cc3ccccc3)C2)N2CCN=C12 (library stock concentration (final ~1000-fold dilution): 10 mM),NF-kB SEAP reporter activity,RAW-Dual [1]; agonist: LPS (TLR4) 0.1 ug/mL,1.25
same,NF-kB SEAP reporter activity,RAW-Dual [1]; [4],0.952
same,NF-kB SEAP reporter activity,RAW-Dual [1]; [5],0.787
same,NF-kB SEAP reporter activity,RAW-Dual [1]; [6],0.924
COC1/C=C/OC2(C)Oc3c(C)c(O)c4c(O)c(c(/C=N/N5CCN(C6CCCC6)CC5)c(O)c4c3C2=O)NC(=O)/C(C)=C/C=C/C(C)C(O)C(C)C(O)C(C)C(OC(C)=O)C1C (stereo not drawn),NF-kB SEAP reporter activity,RAW-Dual [2]; [7],1.11
same,NF-kB SEAP reporter activity,RAW-Dual [2]; [8],0.969
COC1/C=C/OC2(C)Oc3c(C)c(O)c4c(O)c(c(/C=N/N5CCN(C6CCCC6)CC5)c(O)c4c3C2=O)NC(=O)/C(C)=C/C=C/C(C)C(O)C(C)C(O)C(C)C(OC(C)=O)C1C (stereo not drawn) (library stock concentration (final ~1000-fold dilution): 10 mM),NF-kB SEAP reporter activity,RAW-Dual [1]; agonist: LPS (TLR4) 0.1 ug/mL,1.56
same,NF-kB SEAP reporter activity,RAW-Dual [1]; [4],0.892
same,NF-kB SEAP reporter activity,RAW-Dual [1]; [5],0.643
same,NF-kB SEAP reporter activity,RAW-Dual [1]; [6],0.742
